Experimental data taken from a collection of fitness landscapes (doi:10.1016/j.celrep.2020.107928).
Over roughly 81,000 sequences, “one-hybrid fitness for binding NBS DNA” has its median near -0.1; the highest 2% begin near 0.36. This is one part of the list.

B1: Caulobacter ParB omega fusion; a variant is named by its letters at X, in order, B8GW30 (parent)
chain: MESVVVGEPGMSEGRRGLGRGLSALLGEVDAAPAQAPGEQLGGSREAPIEILQRNPDQPRRTFREEDLEDLSNSIREKGVLQPILVRPSPDTAGEYQIVAGERAWRAAQRAGLKTVPIMVRELDDLAVLEIGIIENVQRADLNVLEEALSYKVLMEKFERTQENIAQTIGKSXSHVANXMRLLXLPDEVQSYLVSGELTAXHARAIAAAADPVALAKQIIEGGLSVRETEALARKAPNLSAGKSKGGRPPRVKDTDTQALESDLSSVLGLDVSIDHRGSTGTLTITYATLEQLDDLCNRLTRGI

Variants of: B1
Test: one-hybrid fitness for binding NBS DNA (the Noc-binding site; scaled: cognate 1, non-cognate 0); higher = stronger binding
Conditions: with NBS DNA site
Outline: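 Values were rescaled so that cognate is 1 and non-cognate is 0. Each is a fitness, the log change in a variant's read ratio to wild type from Illumina reads of plasmids before and after selection, with three replicate libraries pooled and variants under 10 reads dropped. Selection of the Caulobacter ParB libraries, four specificity codons randomised, used E. coli USO with a HIS3 reporter, site 19 bp from the promoter, on M9-minus-histidine with 0.1 mM IPTG and 5 mM 3-AT for 48 hours at 37°C.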

Variant	one-hybrid fitness for binding NBS DNA
SCTD	≤ 0.2
RRFL	≤ 0.2
PYLW	≤ 0.2
TAIG	≤ 0.2
AEKM	≤ 0.2
RWPK	≤ 0.2
TYRL	≤ 0.2
WRVT	≤ 0.2
CQPR	≤ 0.2
ADPW	≤ 0.2
CPLK	≤ 0.2
LVAN	≤ 0.2
WPVN	≤ 0.2
RPAG	≤ 0.2
PMDS	≤ 0.2
LCGL	≤ 0.2
NRHA	≤ 0.2
QPKV	≤ 0.2
YLVN	≤ 0.2
NSTE	≤ 0.2
VDRR	≤ 0.2
RKRC	0.4
IRTF	≤ 0.2
MCKC	≤ 0.2
KCMV	≤ 0.2

Variant	one-hybrid fitness for binding NBS DNA
GELL	≤ 0.2
KVGL	≤ 0.2
RHQI	≤ 0.2
LGQS	≤ 0.2
VFDC	≤ 0.2
DVMG	≤ 0.2
HMDV	≤ 0.2
QWHR	0.288
QKQF	≤ 0.2
NHKE	≤ 0.2
HNSI	≤ 0.2
PSDS	≤ 0.2
AFYV	≤ 0.2
PLNH	≤ 0.2
IYAI	≤ 0.2
AVDT	≤ 0.2
AGTL	≤ 0.2
TYSS	≤ 0.2
EGKF	≤ 0.2
NKKV	≤ 0.2
KSRY	≤ 0.2
KRHA	0.357
ANPT	≤ 0.2
GWTV	≤ 0.2
PGIL	≤ 0.2

Variant	one-hybrid fitness for binding NBS DNA
MTPG	≤ 0.2
LVLY	≤ 0.2
IWRG	≤ 0.2
PNYN	≤ 0.2
WCWR	≤ 0.2
HFVR	≤ 0.2
RVEI	≤ 0.2
RTVL	≤ 0.2
TTSR	≤ 0.2
QGYT	≤ 0.2
PWVQ	≤ 0.2
DKLT	≤ 0.2
SDFT	≤ 0.2
KYCS	≤ 0.2
ENIS	≤ 0.2
DRKV	≤ 0.2
QIQV	≤ 0.2
MINC	≤ 0.2
LCHY	≤ 0.2
AGRR	≤ 0.2
QRDV	≤ 0.2
AWVV	≤ 0.2
ILGI	≤ 0.2
LCLS	≤ 0.2
PKNP	≤ 0.2

Variant	one-hybrid fitness for binding NBS DNA
VRVL	≤ 0.2
SLWY	≤ 0.2
QRHF	0.347
RAQV	≤ 0.2
MQVF	≤ 0.2
AIAP	≤ 0.2
KEER	≤ 0.2
IHDF	≤ 0.2
RMHE	≤ 0.2
PETC	≤ 0.2
HVDL	≤ 0.2
YLMY	≤ 0.2
SALS	≤ 0.2
GPLG	≤ 0.2
WAVC	≤ 0.2
SRAV	≤ 0.2
SGTC	≤ 0.2
QIET	≤ 0.2
ITGW	≤ 0.2
LGLL	≤ 0.2
PWSC	≤ 0.2
PQPH	≤ 0.2
